According to PubChem BioAssay (Tox21):
Values joined by “and” are separate entries in the source; they are usually repeats but may differ in a detail not shown here. Identical values can stand only once. This list was built around the results that the source calls inconclusive (neither active nor inactive); the mix of calls is not that of the screen. For some assays here: Potencies of inconclusive entries are doubtful fits and often do not repeat. Active and inactive are the calls of the source. Unless noted, the call rests on the fitted dose curve; in most records, active means well fitted curve in the direction sought with a large enough effect in the repeat runs; inconclusive means weak or mixed curves; inactive means no such curve, though single readings can be large; an effect the other way counts as inactive or inconclusive.

Assays:
[1] = qHTS assay to identify small molecule agonists of the endoplasmic reticulum stress response signaling pathway - cell viability counter screen (AID 1159517; calls by dose curve; further: nearly all actives have a fitted effect of over 50% in size; further: potency means the concentration at half of the fitted maximal effect)
In short: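 ESRE-bla HeLa cells, 1,500 per well, seeded overnight then treated with compounds for 5 hr at 37 C. After the beta-lactamase read, viability in the same wells is measured by CellTiter-Glo luminescence after 30 min at room temperature.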

[2] = qHTS assay to identify small molecule antagonists of the retinoid-related orphan receptor gamma (ROR-gamma) signaling pathway - cell viability counter screen (AID 1159520); further: potency means the concentration at half of the fitted maximal effect; nearly all actives have a fitted effect of over 50% in size
In short: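 Tet-on ROR gamma CHO cells were given compounds for 2 hr, then doxycycline hyclate at 1 uM final, and incubated 16 hr at 37 C. Viability was measured as ATP content by CellTiter-Glo luminescence.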

[3] = qHTS assay to identify small molecule agonists of the AP-1 signaling pathway (AID 1159526; calls by dose curve; further: potency means the concentration at half of the fitted maximal effect); conditions: ME-180 (cervical carcinoma) AP-1-bla reporter, beta-lactamase FRET ratio, 5 h; activation: at 76.8 µM (top of the series) unless noted
[4] = target: Retinoic acid receptor RXR-alpha (Homo sapiens) (UniProt P19793); test: qHTS assay to identify small molecule agonists of the RXR signaling pathway (AID 1159527; calls by dose curve; further: potency means the concentration at half of the fitted maximal effect; nearly all actives have a fitted effect of over 35% in size); conditions: HEK293T RXRa-UAS-bla, beta-lactamase ratio, 16 h; activation: at 76.8 µM (top of the series) unless noted
In short: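 Agonist mode; 9-cis retinoic acid positive control. HEK 293T UAS-bla reporter cells, 2% charcoal-stripped FBS, 16 hr compound exposure at 37 C/5% CO2. LiveBLAzer B/G FRET substrate 2 hr RT; ex 405, em 460/530 nm.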

[5] = qHTS assay to identify small molecule agonists of the RXR signaling pathway - cell viability counter screen (AID 1159529); further: potency means the concentration at half of the fitted maximal effect; nearly all actives have a fitted effect of over 50% in size
In short: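 Luminescence from CellTiter-Glo (30 min, RT) measured viability in the same wells as the beta-lactamase reporter readout. Cells: GeneBLAzer RXR-alpha HEK 293T, 2% charcoal-stripped FBS. Compound exposure 16 hr, 37 C.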

[6] = qHTS assay to identify small molecule antagonists of the retinoid acid receptor (RAR) signaling pathway - cell viability counter screen (AID 1159551); further: potency means the concentration at half of the fitted maximal effect; nearly all actives have a fitted effect of over 35% in size
In short: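 Seed C3RL4 cells; next day add compound, then retinol to 1 uM final; incubate 6 h at 37 C; add CellTiter-Glo; read luminescence after 30 min at RT.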

[7] = qHTS assay to identify small molecule agonists of the retinoic acid receptor (RAR) signaling pathway (AID 1159553); conditions: C3RL4 RARE luciferase reporter, agonist, 6 h; activation: at 73.3 µM (top of the series) unless noted; further: potency means the concentration at half of the fitted maximal effect
In short: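 Activation of retinol signaling was monitored via a RARE luciferase reporter in C3RL4 cells. After 6 hr compound treatment at 37 C, detection reagent was added for 30 min at room temperature before luminescence reading.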

[8] = qHTS assay to identify small molecule antagonists of the estrogen related receptor (ERR) signaling pathway - cell viability counter screen (AID 1224818);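 further: potency means the concentration at half of the fitted maximal effect; viability measured after 17.5 h of compound exposure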
In short: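 In the same ERR cell assay, compound-treated wells (17.5 h, 37 C) were multiplexed with a fluorogenic viability reagent, CellTiter-Fluor, read after 30 min to flag cytotoxic substances.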

[9] = qHTS assay to identify small molecule antagonists of the estrogen related receptor signaling pathway with the pleiotropic PPARgamma coactivator (PGC) cell viability counter screen (AID 1224822; further: potency means the concentration at half of the fitted maximal effect)
In short: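 Compounds in DMSO, with positive and negative controls, were applied to PGC/ERR cells (2,000/well) and left 17.5 h at 37 C before CellTiter-Fluor detection.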

[10] = qHTS assay to identify small molecule antagonists of the constitutive androstane receptor (CAR) signaling pathway - cell viability counter screen (AID 1224837); further: potency means the concentration at half of the fitted maximal effect; nearly all actives have a fitted effect of over 45% in size
In short: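 Using CellTiter-Fluor, viability is scored in HepG2 cells stably carrying hCAR and a 2.2kb CYP2B6 reporter after 23 hr compound exposure across 15 concentrations, with CITCO present at 50 nM.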

[11] = qHTS assay to identify small molecule antagonists of the estrogen related receptor (ERR) signaling pathway from Tox21 library - cell viability counter screen (AID 1224834); further: potency means the concentration at half of the fitted maximal effect; nearly all actives have a fitted effect of over 30% in size
In short: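 CellTiter-Fluor fluorescence measured; ERR cells; 17.5 h compound incubation at 37 C; 30 min reagent step.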

[12] = qHTS assay to identify small molecule agonists of the estrogen related receptor signaling pathway with the pleiotropic PPARgamma coactivator (PGC) (AID 1224823)
In short: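 Steps: plate PGC/ERR cells at 2,000 cells/well; incubate 6 h, 37 C/5% CO2; pin-transfer compounds (DMSO); incubate 18 h, 37 C; add One-Glo; 30 min RT; read luminescence.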

Measured: Potency
Tags describe the fitted curve by direction and shape or compound fluorescence and quenching.

UniProt P19793, sequence (P19793 whole entry, looked up): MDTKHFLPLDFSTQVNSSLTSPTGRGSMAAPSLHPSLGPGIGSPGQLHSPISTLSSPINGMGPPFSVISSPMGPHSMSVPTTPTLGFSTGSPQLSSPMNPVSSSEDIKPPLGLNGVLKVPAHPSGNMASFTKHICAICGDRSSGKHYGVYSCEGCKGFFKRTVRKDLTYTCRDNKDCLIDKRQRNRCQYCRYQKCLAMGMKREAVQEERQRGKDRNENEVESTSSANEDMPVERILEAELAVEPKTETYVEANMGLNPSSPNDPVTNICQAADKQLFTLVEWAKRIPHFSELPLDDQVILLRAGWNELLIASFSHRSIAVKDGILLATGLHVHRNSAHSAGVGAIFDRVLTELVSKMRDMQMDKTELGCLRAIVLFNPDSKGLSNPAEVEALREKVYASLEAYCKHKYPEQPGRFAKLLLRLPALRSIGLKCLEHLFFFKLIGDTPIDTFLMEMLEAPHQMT

CCCCCCCCc1ccc(O)cc1
active: [1] 49.3 µM | [2] 61.5 µM | [9] 52.4 µM
inconclusive: [3] 19.6 µM [cytotoxic] | [4] 24.7 µM [cytotoxic, partial curve] | [5] 12.4 µM [cytotoxic] | [6] 48.9 µM [cytotoxic, partial curve, poor fit] | [7] 19.4 µM [activator] | [8] 52.4 µM [cytotoxic] | [10] 43.5 µM [cytotoxic]

CCC(C)c1cc([N+](=O)[O-])cc([N+](=O)[O-])c1OC(=O)C=C(C)C (centres undefined)
active: [11] 27.3 µM | [10] 61.1 µM
inactive: [1]
inconclusive: [2] 30.6 µM [cytotoxic, partial curve] | [3] 38.9 µM [cytotoxic, partial curve] | [4] 21.9 µM | [5] 5.49 µM [cytotoxic, single point] | [6] 68.6 µM [cytotoxic]

CCCCOC(=O)c1ccccc1C(=O)OCc1ccccc1
inactive: [7] | [12]
inconclusive: [1] 61.6 µM [rising, partial curve, poor fit] | [2] 77 µM [cytotoxic, partial curve, poor fit] | [3] 54.9 µM | [5] 34.7 µM [cytotoxic, partial curve]

Clc1ccc(C(c2ccc(Cl)cc2)C(Cl)Cl)cc1
inconclusive: [2] 69.7 µM [cytotoxic, single point] and 68.6 µM [cytotoxic, single point] | [4] 55.8 µM [cytotoxic, single point] and 61.6 µM [cytotoxic, partial curve, poor fit] | [11] 69.7 µM [cytotoxic, single point] and 68.6 µM [cytotoxic]
active: [1] 22.2 µM and 54.9 µM | [5] 39.5 µM and 38.9 µM
